# Results: PubChem BioAssay AID1345083 (National Center for Advancing Translational Sciences (NCATS), 2018)
# Among all 94,000 compounds or so, about 6,200 (6.6%) were called active. Inconclusive means that the source gave no clear call. Such entries were picked first, then a sample of the others. Calls come from the whole dose curve; as a rule, active = well fitted inhibition curve with a large enough effect; inconclusive = small, poorly fitted or top-dose-only effect; inactive = flat fitted curve, though single readings scatter. Potencies beside an inconclusive call are fits to weak or partial responses and may not hold up.
# Assay: Cytotoxic Profiling in HEK 293 Cell Line of Diverse Libraries Using Quantitative High-Throughput Screening; note: nearly all actives have a fitted effect of over 60% in size
# Conditions: HEK 293 viability, ATP luminescence (CellTiter-Glo), 48-72 h; series mostly up to 115 µM
# Outline: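 Cells seeded first (HEK 293, 250 cells/well), then compound added by pintool. Incubation ran 48 or 72 hr at 37 degree Celsius. CellTiter-Glo was added and luminescence imaged after 10 min at room temperature.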
# Potency is the fitted concentration of half-maximal effect; tags give direction and shape of the fitted curve.
row,Structure (SMILES),Potency
1,Cn1cccc1CN1CCC2(CC1)C(=O)Nc1ccccc12,"inconclusive: 126 µM [inhibitor, single point]"
2,COC1CN(c2cccc(F)c2)C12CCNCC2 (configuration not stated),"inconclusive: 89.1 µM [inhibitor, single point]"
3,CN1CCN2C(=O)N(c3ccccc3)C[C@H]2C1,inactive
4,C=C[C@H]1CN2CC[C@H]1C[C@@H]2CNCc1cccc(Cl)c1,"inconclusive: 126 µM [inhibitor, partial curve, poor fit]"
5,CCOC(=O)[C@H]1CN(C(=O)Cc2ccccc2)[C@]2(C)C(=O)N(CCOC(C)=O)c3ccccc3[C@H]12,"inconclusive: 39.8 µM [inhibitor, single point]"
6,CN1CCC(N2C[C@@H]3C[C@H](C2)c2ccc(-c4ccc(OC(F)(F)F)cc4)c(=O)n2C3)CC1,"inconclusive: 89.1 µM [inhibitor, single point]"
7,CNc1ccc(OC2CCNCC2)nc1,inactive
8,CCOC(=O)[C@H]1CN(C(=O)CCc2ccccc2)[C@]2(C)C(=O)N(CC3CC3)c3ccccc3[C@H]12,"inconclusive: 39.8 µM [inhibitor, single point]"
9,O=C(Nc1ccccc1)N1C[C@@H]2C[C@H](C1)c1ccc(C3CCCCC3)c(=O)n1C2,inactive
10,C=C[C@H]1CN2CC[C@H]1C[C@@H]2CNC(=O)C1CCCCC1,inactive
11,Cn1cccc1C(=O)C(=O)N1C[C@H](c2cc(F)cc(F)c2)[C@@H]2[C@H]1C1CCN2CC1,"inconclusive: 89.1 µM [inhibitor, single point]"
12,NC(=O)c1ccc(N2CC3CCC(C2)N3CC(F)(F)F)nn1,inactive
13,CCCNC(=O)OC[C@H]1C[C@@H]2CCN1C[C@@H]2c1cc(C(CC)CC)nc(-c2ccncc2)n1,"inconclusive: 50.1 µM [inhibitor, partial curve, poor fit]"
14,CCOC(=O)[C@H]1CN(C(=O)c2ccc(F)cc2)[C@]2(C)C(=O)N(CC3CC3)c3ccccc3[C@H]12,"inconclusive: 35.5 µM [inhibitor, partial curve, poor fit]"
15,COc1cc2c(cc1OCC1CC1)NC(=O)C21CCN(C(=O)c2ccnn2C)CC1,"inconclusive: 100 µM [inhibitor, partial curve, poor fit]"
16,O=C(c1ccoc1)N1CCC2(CC1)NCc1ccccc1-n1ccnc12,inactive
17,COc1cc2c(cc1Oc1ccccc1)NC(=O)C21CCN(c2ncc(F)cn2)CC1,active: 89.1 µM
18,CCn1ccc(C(=O)N2CCC3(CC2)NCc2ccccc2-n2ccnc23)n1,inactive
19,CC(C)(C)CC(=O)N1C[C@@H]2C[C@H](C1)c1ccc(NC(=O)Nc3cccc(F)c3)c(=O)n1C2,"inconclusive: 89.1 µM [inhibitor, single point]"
20,O=C(Cc1ccccc1)N1Cc2ccccc2CC2(CCCCN2Cc2ccccn2)C1 (configuration not stated),"inconclusive: 50.1 µM [inhibitor, partial curve, poor fit]"
21,Cc1nc(-c2ccccc2)cc([C@H]2CN3CC[C@H]2C[C@@H]3CNC(=O)C(C)(C)C)n1,"inconclusive: 100 µM [inhibitor, partial curve, poor fit]"

row,Structure (SMILES),Potency
1,COc1ccc(C(=O)N2C[C@@H]3C[C@H](C2)c2ccc(NC(=O)CN(C)C)c(=O)n2C3)cc1,inactive
2,CNC(=O)[C@@H]1[C@@H](c2ccccc2)CN2CCN(C(C)=O)C[C@H]12,inactive
3,CC(C)N1CC2CCC(C1)N2C(=O)N1CCCC1,inactive
4,N#Cc1cccc(NC(=O)NC[C@H]2C[C@@H]3CCN2C[C@@H]3CN2CCN(c3ccc(F)cc3)CC2)c1,"inconclusive: 50.1 µM [inhibitor, partial curve, poor fit]"
5,CCOC(=O)[C@H]1CN(C(=O)c2cc(C)oc2C)[C@]2(C)C(=O)N(CCOC)c3ccccc3[C@H]12,"inconclusive: 39.8 µM [inhibitor, single point]"
6,C=CCN1C[C@@H]2CN(S(=O)(=O)c3cccnc3)C[C@]2(C(=O)O)C1,inactive
7,O=C(O)c1cn(C2CCCCCC2)nn1,inactive
8,COc1ccccc1NC(=O)Nc1ccc2n(c1=O)C[C@H]1C[C@@H]2CN(C2CCOCC2)C1,"inconclusive: 56.2 µM [inhibitor, partial curve, poor fit]"
9,COc1ccc(CC(=O)N2CCC3(C2)C(=O)Nc2ccc(OC)cc23)c(Cl)c1 (configuration not stated),"inconclusive: 70.8 µM [inhibitor, partial curve, poor fit]"
10,O=C(c1ccco1)N1C[C@@H]2C[C@H](C1)c1c(-c3cccnc3)ccc(=O)n1C2,inactive
11,CN(C)C(=O)[C@H]1CN2CCC1C[C@@H]2Cn1cc(C2(O)CCCCC2)nn1 (some centres not stated),inactive
12,COc1cc2c(cc1-c1cccnc1)NC(=O)C21CCN(C(C)=O)CC1,inactive
13,COc1cc2c(cc1OCc1ccccc1)N([S+](=O)([O-])c1cccnc1)CC21CCN(C)CC1,"inconclusive: 44.7 µM [inhibitor, partial curve, poor fit]"
14,Cc1nc(-c2ccc(F)cc2)cc([C@H]2CN3CC[C@H]2C[C@@H]3CNC(=O)Nc2cccc(C#N)c2)n1,"inconclusive: 20 µM [inhibitor, full curve, poor fit]"
15,COc1ccc(S(=O)(=O)NC[C@H]2C[C@@H]3CCN2C[C@@H]3CN(C)Cc2ccccc2)cc1,inactive
16,C=C[C@H]1CN2CC[C@H]1C[C@@H]2CNC(=O)c1ccc(C(F)(F)F)cc1,inactive
17,COc1ccccc1CNC(=O)[C@H]1CN2CCC1C[C@@H]2Cn1cc(-c2cccc(N)c2)nn1 (some centres not stated),inactive
18,COc1ccc2c(c1)C1(CCN(C(=O)c3ccccc3Br)C1)C(=O)N2 (configuration not stated),"inconclusive: 89.1 µM [inhibitor, single point]"
19,Cc1cccc([C@H]2C[C@@H](O)[C@@H](O)[C@@H]2NCC(C)C)c1,"inconclusive: 158 µM [inhibitor, single point]"
20,Cc1ccccc1-c1ccc2n(c1=O)C[C@H]1C[C@@H]2CN(C(=O)c2cnccn2)C1,active: 89.1 µM
21,O=C(NC[C@H]1C[C@@H]2CCN1C[C@@H]2CN1CCN(c2ccc(F)cc2)CC1)Nc1ccccc1,"inconclusive: 50.1 µM [inhibitor, partial curve, poor fit]"
